Among the data in the antibiotic and cytotoxicity screens of Wong et al. (2023) are cytotoxicity call and growth inhibition call values, retold here.

The subject of one assay is HSkMC. Nature of the assay: cytotoxicity call (relative viability < 0.9). To be noted: 10 µM.
The next assay deals with HepG2. Nature of the assay: cytotoxicity call (relative viability < 0.9). To be noted: 10 µM.
The next assay has as its system S. aureus RN4220. Nature of the assay: growth inhibition call (relative growth <= 0.2). To be noted: 50 µM.

Molecules are shown by their SMILES. Some of the results follow.

As for `Cc1ccc(S(=O)(=O)N(C)C[C@H]2Oc3c(NC(=O)Nc4ccc(C(F)(F)F)cc4)cccc3C(=O)N([C@H](C)CO)C[C@H]2C)cc1`, the cytotoxicity call in the assay with HSkMC was “active”. In addition, the cytotoxicity call in the assay on HepG2 was “inactive”. Moreover, in the assay with S. aureus RN4220, the growth inhibition call is “inactive”.
Regarding `C[C@H]1CN([C@@H](C)CO)C(=O)Cc2cc(NC(=O)Cc3ccccc3)ccc2O[C@H]1CN(C)S(=O)(=O)c1cn(C)cn1`, the cytotoxicity call in the assay on HSkMC and with HepG2 was “inactive” each time. For the same compound, in the assay with S. aureus RN4220, the growth inhibition call is “inactive”.
On to `C[C@@H]1CN([C@@H](C)CO)S(=O)(=O)c2ccc(C#Cc3ccccn3)cc2O[C@@H]1CN(C)Cc1ccccc1`, for which the cytotoxicity call in the assay on HSkMC and with HepG2 was “inactive” throughout. In addition, the growth inhibition call in the assay with S. aureus RN4220 was “inactive”.
In the case of `C[C@@H]1CN([C@@H](C)CO)C(=O)c2ccccc2-c2ccccc2CO[C@H]1CN(C)C(=O)Nc1ccc(F)cc1`, the cytotoxicity call in the assay with HSkMC and in the assay on HepG2 was “inactive” throughout. For the same compound, the growth inhibition call in the assay with S. aureus RN4220 is “inactive”.
For `C[C@@H]1CN([C@H](C)CO)C(=O)Cc2cc(NS(=O)(=O)c3ccccc3)ccc2O[C@@H]1CN(C)Cc1ccc(Cl)c(Cl)c1`, the cytotoxicity call in the assay on HSkMC and in the assay on HepG2 was “active” in each case. For the same compound, in the assay with S. aureus RN4220, the growth inhibition call was “inactive”.
Regarding `C[C@@H]1CN([C@H](C)CO)C(=O)Cc2cc(NC(=O)Nc3ccc(C(F)(F)F)cc3)ccc2O[C@H]1CN(C)Cc1ccc(Cl)c(Cl)c1`, the cytotoxicity call with HSkMC was “active”. The cytotoxicity call with HepG2 is “inactive”. In addition, the growth inhibition call with S. aureus RN4220 was “inactive”.
For `COc1ccc(NC(=O)Nc2cccc3c2O[C@H](CN(C)C(=O)Nc2ccc(C(F)(F)F)cc2)[C@@H](C)CN([C@H](C)CO)C3=O)cc1`, the cytotoxicity call in the assay with HSkMC and with HepG2 was “inactive” each time. Further, the growth inhibition call with S. aureus RN4220 was “inactive”.
For `C[C@@H]1CCCCO[C@H](CN(C)Cc2ccncc2)[C@H](C)CN([C@H](C)CO)C(=O)c2cc(NC(=O)Nc3ccc4c(c3)OCO4)ccc2O1`, the cytotoxicity call in the assay on HSkMC and in the assay on HepG2 was “inactive” throughout. Also, the growth inhibition call with S. aureus RN4220 is “inactive”.
On to `C[C@@H]1CCCCO[C@H](CN(C)C(=O)Cc2ccccc2)[C@@H](C)CN([C@@H](C)CO)C(=O)c2cc(NC(=O)Cc3ccccc3)ccc2O1`, for which the cytotoxicity call with HSkMC and with HepG2 was “inactive” each time. Also, in the assay on S. aureus RN4220, the growth inhibition call is “inactive”.
As to `COc1ccc(CN(C)C[C@@H]2Oc3c(NS(=O)(=O)c4cn(C)cn4)cccc3C(=O)N([C@@H](C)CO)C[C@H]2C)cc1`, the cytotoxicity call with HSkMC and in the assay with HepG2 was “inactive” in each case. In addition, the growth inhibition call with S. aureus RN4220 was “inactive”.
Regarding `CNC(=O)C[C@H]1C[C@@H]2CN(S(=O)(=O)c3cccnc3)C[C@@H]2O1`, the cytotoxicity call in the assay with HSkMC and in the assay with HepG2 was “inactive” throughout. For the same compound, in the assay with S. aureus RN4220, the growth inhibition call was “inactive”.
In the case of `CC(C)(N)c1cn(CC2CCN(C(=O)c3ccccc3-n3cccn3)CC2)nn1`, the cytotoxicity call with HSkMC and with HepG2 was “inactive” each time. Also, in the assay on S. aureus RN4220, the growth inhibition call was “inactive”.
With `COc1cccc(S(=O)(=O)N(C)C[C@H]2OCc3cn(nn3)CCCC(=O)N([C@H](C)CO)C[C@@H]2C)c1`, the cytotoxicity call with HSkMC and in the assay on HepG2 was “inactive” throughout. Besides, in the assay with S. aureus RN4220, the growth inhibition call is “inactive”.
For `COc1ccc(S(=O)(=O)N(C)C[C@@H]2OCCCC[C@H](C)Oc3ccc(NC(=O)CCC(F)(F)F)cc3C(=O)N([C@H](C)CO)C[C@H]2C)cc1`, the cytotoxicity call with HSkMC and in the assay with HepG2 was “inactive” each time. Besides, in the assay on S. aureus RN4220, the growth inhibition call was “inactive”.
As for `C[C@@H]1CN([C@@H](C)CO)C(=O)Cc2cc(NS(=O)(=O)c3cccs3)ccc2O[C@H]1CN(C)S(=O)(=O)c1cn(C)cn1`, the cytotoxicity call in the assay on HSkMC and with HepG2 was “inactive” throughout. Also, in the assay with S. aureus RN4220, the growth inhibition call was “inactive”.
Regarding `COc1ccc(NC(=O)N(C)C[C@H]2Oc3ccc(NC(=O)CCCN(C)C)cc3C(=O)N([C@H](C)CO)C[C@@H]2C)cc1`, the cytotoxicity call with HSkMC and with HepG2 was “inactive” each time. In the assay with S. aureus RN4220, the growth inhibition call was “inactive”.
`COc1ccc(S(=O)(=O)N(C)C[C@H]2Oc3c(NC(=O)Nc4c(C)noc4C)cccc3C(=O)N([C@@H](C)CO)C[C@H]2C)cc1`: the cytotoxicity call in the assay with HSkMC and in the assay on HepG2 was “inactive” each time. Also, the growth inhibition call with S. aureus RN4220 was “inactive”.
Take `C[C@@H]1CCCCO[C@@H](CN(C)S(C)(=O)=O)[C@H](C)CN([C@@H](C)CO)C(=O)c2cc(NC(=O)c3ccncc3)ccc2O1`: the cytotoxicity call in the assay on HSkMC and with HepG2 was “inactive” throughout. Further, the growth inhibition call with S. aureus RN4220 was “inactive”.
Turning to `O=C(O)CNC(=O)CN1C(=O)c2ccccc2C1=O`, the cytotoxicity call with HSkMC and in the assay with HepG2 was “inactive” throughout. Moreover, the growth inhibition call in the assay with S. aureus RN4220 was “inactive”.
As for `Cc1ccc(S(=O)(=O)N(C)C[C@@H]2Oc3c(NS(=O)(=O)c4c(C)noc4C)cccc3C(=O)N([C@@H](C)CO)C[C@@H]2C)cc1`, the cytotoxicity call with HSkMC and in the assay on HepG2 was “inactive” in each case. Also, the growth inhibition call with S. aureus RN4220 is “inactive”.
Take `CN1CCN(C(=O)C[C@H]2C[C@@H]3c4cc(NS(=O)(=O)c5ccc(F)cc5)ccc4O[C@@H]3[C@@H](CO)O2)CC1`: the cytotoxicity call with HSkMC and with HepG2 was “inactive” throughout. For the same compound, the growth inhibition call in the assay with S. aureus RN4220 is “inactive”.
Regarding `C[C@@H]1CCCCO[C@@H](CN(C)Cc2ccc(Cl)c(Cl)c2)[C@H](C)CN([C@H](C)CO)C(=O)c2cc(NC(=O)Nc3ccc4c(c3)OCO4)ccc2O1`, the cytotoxicity call in the assay on HSkMC and in the assay on HepG2 was “inactive” throughout. Also, the growth inhibition call in the assay on S. aureus RN4220 is “inactive”.
As for `COc1ccc(CN(C)C[C@H]2OCCCC[C@H](C)Oc3ccc(NC(=O)Nc4ccc(C(F)(F)F)cc4)cc3C(=O)N([C@H](C)CO)C[C@H]2C)cc1`, the cytotoxicity call in the assay with HSkMC and with HepG2 was “active” each time. Moreover, in the assay on S. aureus RN4220, the growth inhibition call is “inactive”.
As to `C[C@H](CO)N1C[C@H](C)[C@H](CN(C)S(=O)(=O)c2ccc(C#N)cc2)Oc2ncc(C#Cc3ccc(F)cc3)cc2C1=O`, the cytotoxicity call in the assay on HSkMC (human skeletal muscle cells) and in the assay on HepG2 was “inactive” each time. For the same compound, the growth inhibition call with S. aureus RN4220 was “inactive”.
For `C[C@@H]1CCCCO[C@@H](CN(C)C(=O)Nc2ccc(F)cc2)[C@@H](C)CN([C@H](C)CO)C(=O)c2cc(NC(=O)CCCCCC(=O)Nc3ccccc3N)ccc2O1`, the cytotoxicity call in the assay with HSkMC and with HepG2 was “inactive” in each case. For the same compound, in the assay on S. aureus RN4220, the growth inhibition call was “inactive”.
Regarding `N[C@H](CC(=O)O)C(=O)O`, the cytotoxicity call with HSkMC and with HepG2 was “inactive” each time. Besides, in the assay on S. aureus RN4220, the growth inhibition call was “inactive”.
With `COc1cc(/C=C/C(=O)CC2=N/C(=N/c3ccc(OC)c(OC)c3)S[C@H](c3ccc(O)c(OC)c3)C2)ccc1O`, the cytotoxicity call in the assay with HSkMC and with HepG2 was “inactive” in each case. In addition, in the assay with S. aureus RN4220, the growth inhibition call is “inactive”.
Turning to `CC1(C)SC2C(N3C(=O)C(c4ccccc4)NC3(C)C)C(=O)N2C1C(=O)[O-].[K+]` (configuration not stated), the cytotoxicity call with HSkMC and with HepG2 was “inactive” throughout. In the assay with S. aureus RN4220, the growth inhibition call is “active”.
Take `C[C@@H]1CN([C@@H](C)CO)C(=O)c2cc(NC(=O)Cn3cnnn3)ccc2O[C@H]1CN(C)C(=O)Nc1ccc(F)cc1`: the cytotoxicity call with HSkMC and with HepG2 was “inactive” in each case. Also, in the assay with S. aureus RN4220, the growth inhibition call is “inactive”.
